# Measured values taken from the supplement of paper PMC4166925.
# ± gives the standard deviation of the averaged measurements. Over roughly 33,000 sequences, “E-score (dimensionless, -0.5 to 0.5)” has its median near -0.049; the highest 2% begin near 0.37. The list shows a part of the results.
# System: T1, PmTbr T-box DNA-binding domain (GST fusion)
# T1 sequence: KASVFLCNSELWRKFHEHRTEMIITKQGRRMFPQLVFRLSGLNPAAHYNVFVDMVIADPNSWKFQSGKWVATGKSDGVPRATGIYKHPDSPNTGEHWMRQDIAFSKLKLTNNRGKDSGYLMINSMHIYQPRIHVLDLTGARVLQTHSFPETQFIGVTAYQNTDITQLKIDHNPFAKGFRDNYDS
# Assay: PBM E-score of 8-mer (E-score (dimensionless, -0.5 to 0.5)); Tbr is Tbrain of the sea star Patiria miniata (Pm) or the sea urchin Strongylocentrotus purpuratus (Sp); higher = stronger binding preference; most listed sequences are background and not binding sites
# Conditions: the construct has about 5 more residues each side
# Procedure, shortened: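 Expression of GST-fused Tbr T-box DNA-binding domains, each holding the full T-box plus roughly five flanking residues, was carried out in BL21 E. coli at 20 °C, with purification by glutathione affinity chromatography. Universal Agilent arrays made double-stranded by primer extension were incubated with the protein at 200 nM in PBS (pH 7.5), then scanned and quantified. All ungapped 8-mers were scored from probe intensities, and each received an enrichment E-score from the Universal PBM Analysis Suite, averaged over duplicate arrays.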
row,Sequence,PBM E-score of 8-mer
1,CGTCGTCA,0.232 ± 0.012
2,TCGAACCA,-0.0751 ± 0.11
3,GCTCGTAC,-0.138 ± 0.023
4,GGCGGTTA,-0.254 ± 0.084
5,ACCGATTC,-0.224 ± 0.066
6,GCAAGAGA,-0.124 ± 0.037
7,AGTCAGGC,-0.332 ± 0.017
8,GAATCATC,-0.0201 ± 0.021
9,CATCTGAA,-0.015 ± 0.048
10,CGAAACTC,0.00966 ± 0.025
11,ATAGACTG,-0.0183 ± 0.043
12,AGCAGGAA,-0.139 ± 0.021
13,CCGGAACG,-0.159 ± 0.039
14,AAGGATCT,-0.189 ± 0.037
15,CTGTGATA,0.2528 ± 0.0022
16,ATCCGAAT,-0.36 ± 0.007
17,ACCTCTAA,-0.0425 ± 0.028
18,AGGCTGGG,-0.18 ± 0.069
19,AATACATG,-0.152 ± 0.094
20,CGATATTC,0.0118 ± 0.021
21,ACGACCAG,-0.0759 ± 0.043
22,TGTATTAA,-0.0716 ± 0.098

row,Sequence,PBM E-score of 8-mer
1,CTGTGGTC,-0.178 ± 0.13
2,AGCATTAA,-0.0919 ± 0.027
3,ACGCGCGC,0.157 ± 0.033
4,AAACCCCA,-0.268 ± 0.039
5,CTATCAGA,-0.102 ± 0.0099
6,GAGTCAAA,-0.15 ± 0.029
7,AGCTAAGA,0.0667 ± 0.1
8,GCCGACCC,-0.256 ± 0.038
9,ACTGTTGC,0.0455 ± 0.0063
10,ACGTCATC,0.115 ± 0.019
11,CATTCTCG,0.171 ± 0.048
12,CCATGGGC,-0.149 ± 0.018
13,ATTGATAC,0.0782 ± 0.11
14,CACATAAA,0.117 ± 0.014
15,CAACACTC,0.339 ± 0.0075
16,GGTGTGAC,0.4864 ± 0.0033
17,GCCGTGTA,-0.112 ± 0.015
18,CGCCCATA,-0.0434 ± 0.00045
19,TAGTCAGA,-0.0794 ± 0.018
20,TTGCCCAA,-0.191 ± 0.041
21,GTCGAGAC,-0.137 ± 0.02
22,CGAGCGAA,-0.0807 ± 0.16

row,Sequence,PBM E-score of 8-mer
1,CGTCGTAG,-0.15 ± 0.043
2,CTGAACTA,-0.226 ± 0.054
3,CCTTGACC,-0.13 ± 0.041
4,GGCGAGAA,0.339 ± 0.005
5,AGTCCGTG,-0.179 ± 0.026
6,GAGGGTCC,-0.34186 ± 2.1e-05
7,AACTCATG,-0.206 ± 0.012
8,ACGGCACG,0.0779 ± 0.012
9,CGTATGTA,-0.0635 ± 0.046
10,TACTCACA,0.264 ± 0.0045
11,AATTGCAG,0.0429 ± 0.013
12,ACCCAGCC,-0.112 ± 0.11
13,CATGATCC,-0.109 ± 0.054
14,GCGCCGAA,0.151 ± 0.0066
15,GGCGGTCA,-0.206 ± 0.086
16,TAGTTAAA,-0.253 ± 0.0031
17,CCTACCTA,-0.162 ± 0.092
18,AAAGCCGA,-0.0961 ± 0.0053
19,CCGTGGGA,-0.179 ± 0.082
20,CAGAGCCC,-0.118 ± 0.077
21,AGATGTTA,0.0329 ± 0.035
22,TGAATTCA,0.00624 ± 0.11

row,Sequence,PBM E-score of 8-mer
1,AAAAAGTT,0.111 ± 0.092
2,GGACATCA,-0.0324 ± 0.05
3,CAGATACG,-0.0625 ± 0.037
4,AAACGCCT,0.1217 ± 0.0004
5,AGATATGA,-0.00711 ± 0.082
6,GATCGTGA,0.164 ± 0.0057
7,CCACGTCA,0.0883 ± 0.058
8,CGCTCAGC,-0.213 ± 0.0023
9,CGAGTGAA,0.0674 ± 0.029
10,CGTCTGCA,0.025 ± 0.029
11,GAAATGTA,-0.116 ± 0.024
12,ATCTAGAC,-0.205 ± 0.0034
13,CTCGAAGA,-0.159 ± 0.046
14,GACTTCCA,-0.2 ± 0.014
15,CATCTCAA,-0.156 ± 0.035
16,GTCTGAGA,-0.0929 ± 0.061
17,AAATCTCA,0.161 ± 0.034
18,TGACCGCA,-0.192 ± 0.044
19,CAGAATAC,-0.145 ± 0.0078
20,CCCCGCAC,0.168 ± 0.038
